Tests used:
[1] = test system: A549 human lung carcinoma xenograft; assay: A549 FP3 xenograft tumor growth inhibition, with or without docetaxel; assay type: in vivo, mouse; conditions: QDx1, Ab095 8 IP, docetaxel 7.5 IV, ADC 10 mg/kg/day IP
Procedure: (§1) The cell lines A549 and NCI-H460 were obtained from the American Type Culture Collection (ATCC, Manassas, Va.). A549 cell line was further passaged in mice as flank xenograft to improve xenograft tumor growth, resulting in the A549-FP3 line. Cells were cultured as monolayers in RPMI-1640 culture media (Invitrogen, Carlsbad, Calif.) supplemented with 10% Fetal Bovine Serum (FBS, Hyclone, Logan, Utah). To generate xenografts, 5×10^6 (A549 and NCI-H460) viable cells were inoculated subcutaneously into the right flank of immune deficient female SCID-bg mice (Charles River Laboratories, Wilmington, Mass.). The injection volume was 0.2 ml and composed of 1:1 S-MEM:Matrigel Matrigel (BD, Franklin Lakes, N.J.). Tumors were size matched at approximately 223 mm^3. […] Measurements of the length (L) and width (W) of the tumor were taken via electronic caliper and the volume was calculated according to the following equation: V=L×W^2/2. […]
(§2) To refer to efficacy of therapeutic agents, parameters of amplitude (TGI.), durability (TGD) are used. […] Tumor growth inhibition is calculated by 100*(1−Tv/Cv) where Tv and Cv are the mean tumor volumes of the treated and control groups, respectively. […] TGD is calculated by 100*(Tt/Ct−1) where Tt and Ct are the median time periods to reach 1 cm^3 of the treated and control groups, respectively.

[2] = Size exclusion chromatography, % aggregate fraction of ADC; assay type: physicochemical; conditions: ADCs of Table 27
Procedure: Size exclusion chromatography was performed using a Shodex KW802.5 column in 0.2M potassium phosphate pH 6.2 with 0.25 mM potassium chloride and 15% IPA at a flow rate of 0.75 ml/min. The peak area absorbance at 280 nm was determined for each of the high molecular weight and monomeric eluents by integration of the area under the curve. The % aggregate fraction of the conjugate sample was determined by dividing the peak area absorbance at 280 nm for the high molecular weight eluent by the sum of the peak area absorbances at […] of the high molecular weight and monomeric eluents multiplied by 100%.

[3] = DAR determination by LC-MS
Procedure: LC-MS analysis was performed using an Agilent 1100 HPLC system interfaced to an Agilent LC/MSD TOF 6220 ESI mass spectrometer. The ADC was reduced with 5 mM (final concentration) BOND-BREAKER TCEP solution (Thermo Scientific, Rockford, Ill.), loaded onto a Protein Microtrap (Michrom Bioresorces, Auburn, Calif.) desalting cartridge, and eluted with a gradient of 10% B to 75% B in 0.2 minutes at ambient temperature. Mobile phase A was H2O with 0.1% formic acid (FA), mobile phase B was acetonitrile with 0.1% FA, and the flow rate was 0.2 ml/min. Electrospray-ionization time-of-flight mass spectra of the co-eluting light and heavy chains were acquired using Agilent MassHunter™ acquisition software. The extracted intensity vs. m/z spectrum was deconvoluted using the Maximum Entropy feature of MassHunter software to determine the mass of each reduced antibody fragment. DAR was calculated from the deconvoluted spectrum by summing intensities of the naked and modified peaks for the light chain and heavy chain, normalized by multiplying intensity by the number of drugs attached. The summed, normalized intensities were divided by the sum of the intensities, and the summing results for two light chains and two heavy chains produced a final average DAR value for the full ADC.

[4] = test system: NCI-H460 human lung carcinoma xenograft; assay: NCI-H460 xenograft tumor growth inhibition, with or without docetaxel; assay type: in vivo, mouse; conditions: QDx1, Ab095 8 IP, docetaxel 7.5 IV, ADC 10 mg/kg/day IP
Procedure: as §1, §2

[5] = test system: NCI-H146 (human small cell lung cancer) xenograft; assay: NCI-H146 xenograft tumor growth inhibition; assay type: in vivo, mouse; conditions: single dose 10 mg/kg/day QDx1/IP
Procedure: The in vivo efficacy of anti-CD98 hybridoma mAb conjugates were tested using Ab3-CZ and Ab5-CZ as examples in NCI-H146 (human small cell lung cancer) xenograft model. […] The cells were cultured as monolayers in RPMI-1640 culture media (Invitrogen, Carlsbad, Calif.) that was supplemented with 10% Fetal Bovine Serum (FBS, Hyclone, Logan, Utah). To generate xenografts, 5×10^6 (NCI-H146) viable cells were inoculated subcutaneously into the right flank of immune deficient female SCID-bg mice (Charles River Laboratories, Wilmington, Mass.). The injection volume was 0.2 mL and composed of Matrigel (BD, Franklin Lakes, N.J.). Tumors were size matched at approximately 212 mm^3. Antibodies and conjugates were formulated in phosphate buffered saline, pH 7.2 and injected intraperitoneally. […] Therapy began within 24 hours after size matching of the tumors. Mice weighed approximately 21 g at the onset of therapy. Tumor volume was estimated two to three times weekly. Measurements of the length (L) and width (W) of the tumor were taken via electronic caliper and the volume was calculated according to the following equation: V=L×W^2/2. Mice were euthanized when tumor volume reached 3,000 mm^3 or skin ulcerations occurred. Eight mice were housed per cage. Food and water were available ad libitum. Mice were acclimated to the animal facilities for a period of at least one week prior to commencement of experiments. Animals were tested in the light phase of a 12-hour light: 12-hour dark schedule (lights on at 06:00 hours). Anti-CD98 conjugates (10 mg/kg) were administered as a single dose (QDx1) intraperitoneally. A human IgG control antibody (MSL109, a humanized IgG1 antibody that binds to cytomegalovirus (CMV) glycoprotein H) was used as a negative control agent.
To refer to efficacy of therapeutic agents, parameters of amplitude (TGImax), durability (TGD) and response frequency (CR, PR, OR) of therapeutic response are used. The efficacy of inhibition of NCI-H146 xenografts growth with CD98-targeted ADCs is illustrated by Table 6, below. In the tables, to refer to efficacy, parameters of amplitude (TGImax) and durability (TGD) of therapeutic response are used. TGImax is the maximum tumor growth inhibition during the experiment. Tumor growth inhibition is calculated by 100*(1−Tv/Cv) where Tv and Cv are the mean tumor volumes of the treated and control groups, respectively. TGD or tumor growth delay is the extended time of a treated tumor needed to reach a volume of 1 cm^3 relative to the control group. TGD is calculated by 100*(Tt/Ct−1) where Tt and Ct are the median time periods to reach 1 cm^3 of the treated and control groups, respectively. Distribution of the response amplitude in a specific group is given by the frequency of complete responders (CR), partial responders (PR), and overall responders (OR). CR is the percentage of mice within a group with a tumor burden of 25 mm^3 for at least three measurements. PR is the percentage of mice within a group with a tumor burden larger than 25 mm^3 but less than one-half of the volume at onset of treatment for at least three measurements. OR is the sum of CR and PR.
The in vivo anti-tumor efficacy of selected humanized anti-CD98 mAb conjugates were tested in NCI-H146 (human small cell lung cancer) xenograft model, as described in Example 6. Tumor growth inhibition was reported as TGImax in Table 28.

[6] = ADCs of Table 28 (NCI-H146 xenograft study)

B1: CD98 (CL-huAb108)-TX (conjugate)
heavy: EVQLVQSGAEVKKPGASVKVSCKASGFTFSDYTMAWVRQAPGQGLEWVATIIYSGRGTYYRDAVKGRFTITRDNSTSTLYLELSSLRSEDTAVYYCARQSDDTYYYWGYFDYWGQGTMVTVSSASTKGPSVFPLAPSSKSTSGGTAALGCLVKDYFPEPVTVSWNSGALTSGVHTFPAVLQSSGLYSLSSVVTVPSSSLGTQTYICNVNHKPSNTKVDKKV[omitted - human IgG1 Fc with changes]
light: DIVMTQTPLSLPVTPGEPASINCKSSQSLLFSGNQKNYLAWYLQKPGQSPQLLIYWASTRQSGVPDRFSGSGSGTDFTLKISRVEAEDVGIYYCQQYYDVPYTFGQGTKLEIKRTVAAPSVFIFPPSDEQLKSGTASVVCLLNNFYPREAKVQWKVDNALQSGNSQESVTEQDSKDSTYSLSSTLTLSKADYEKHKVYACEVTHQGLSSPVTKSFNRGEC
With B1 the TGD [1] was 60%, the TGImax [1] was 57% and the “% agg by SEC” value [2] was 2.3%. For the same molecule, the “DAR by MS” value ([3]; ADCs of Table 27) was 2.9, the TGD [4] was 22% and the TGImax [4] was 35%.

B2: CD98 (CL-huAb102)-AAA (conjugate)
heavy: EVQLVESGGGLVQPGGSLRLSCATSGFTFIDYYMSWVRQAPGKGLEWLGFIRNKANRYTTEYSASVKGRFTISRDNSKSILYLQMNSLKTEDTAVYYCTRDRPAWFVYWGQGTLVTVSSASTKGPSVFPLAPSSKSTSGGTAALGCLVKDYFPEPVTVSWNSGALTSGVHTFPAVLQSSGLYSLSSVVTVPSSSLGTQTYICNVNHKPSNTKVDKKV[omitted - human IgG1 Fc with changes]
light: DIVMTQTPLSLPVTPGEPASISCKSSQSLLYSSNQKNYLAWYLQKPGQSPQLLIYWASTRESGVPDRFSGSGSGTDFTLKISRVEAEDVGVYYCQQYYSYPYTFGGGTKVEIKRTVAAPSVFIFPPSDEQLKSGTASVVCLLNNFYPREAKVQWKVDNALQSGNSQESVTEQDSKDSTYSLSSTLTLSKADYEKHKVYACEVTHQGLSSPVTKSFNRGEC
For B2, the TGImax [5] was 69%, the “% agg by SEC” value [2] was 7.4% and the “DAR by MS” value ([3]; ADCs of Table 27) was 1.4. For the same molecule, the “DAR by MS” value [3, 6] was 1.8.

B3: CD98 (CL-huAb104)-AAA (conjugate)
heavy: EVQLVESGGGLVQPGGSLRLSCATSGFTFIDYYMSWVRQAPGKGLEWLGFIRNKAYGYTTEYSASVKGRFTISRDNSKSILYLQMNSLKTEDTAVYYCTRDRPAWFVYWGQGTLVTVSSASTKGPSVFPLAPSSKSTSGGTAALGCLVKDYFPEPVTVSWNSGALTSGVHTFPAVLQSSGLYSLSSVVTVPSSSLGTQTYICNVNHKPSNTKVDKKV[omitted - human IgG1 Fc with changes]
light: DIVMTQTPLSLPVTPGEPASISCKSSQSLLYSSNQKNYLAWYLQKPGQSPQLLIYWASTRESGVPDRFSGSGSGTDFTLKISRVEAEDVGVYYCQQYYSYPYTFGGGTKVEIKRTVAAPSVFIFPPSDEQLKSGTASVVCLLNNFYPREAKVQWKVDNALQSGNSQESVTEQDSKDSTYSLSSTLTLSKADYEKHKVYACEVTHQGLSSPVTKSFNRGEC
With B3 the TGImax [5] was 61%, the “% agg by SEC” value [2] was 11.7% and the “DAR by MS” value ([3]; ADCs of Table 27) was 1.9. The “DAR by MS” value [3, 6] was 2.2.

B4: CD98 (CL-huAb108)-AAA (conjugate)
heavy: EVQLVQSGAEVKKPGASVKVSCKASGFTFSDYTMAWVRQAPGQGLEWVATIIYSGRGTYYRDAVKGRFTITRDNSTSTLYLELSSLRSEDTAVYYCARQSDDTYYYWGYFDYWGQGTMVTVSSASTKGPSVFPLAPSSKSTSGGTAALGCLVKDYFPEPVTVSWNSGALTSGVHTFPAVLQSSGLYSLSSVVTVPSSSLGTQTYICNVNHKPSNTKVDKKV[omitted - human IgG1 Fc with changes]
light: DIVMTQTPLSLPVTPGEPASINCKSSQSLLFSGNQKNYLAWYLQKPGQSPQLLIYWASTRQSGVPDRFSGSGSGTDFTLKISRVEAEDVGIYYCQQYYDVPYTFGQGTKLEIKRTVAAPSVFIFPPSDEQLKSGTASVVCLLNNFYPREAKVQWKVDNALQSGNSQESVTEQDSKDSTYSLSSTLTLSKADYEKHKVYACEVTHQGLSSPVTKSFNRGEC
For B4, the TGImax [5] was 61%, the “% agg by SEC” value [2] was 17.9% and the “DAR by MS” value ([3]; ADCs of Table 27) was 1.3. For the same molecule, the “DAR by MS” value [3, 6] was 3.0.
